How the values were obtained:
[1] = target: T1, hPD-L1(ECD)-Fc (human, UniProt Q9NZQ7 partial chain); assay: BLI (Fortebio Red96), Protein A probes, 30℃
T1 construct: extracellular domain; also called 重组人PD-L1; not shown: Fc part not described

[2] = target: T2, hCD47(ECD)-Fc (human, UniProt Q08722 partial chain); assay: BLI (Fortebio Red96), Protein A probes, 30℃
T2 construct: extracellular domain; not shown: Fc part not described

[3] = target: T3, 人CD47 (Jurkat细胞, 高表达人CD47) (human, UniProt Q08722); assay: flow cytometry competition against hSIRPa(ECD)-Fc-Biotin on Jurkat cells
T3 construct: whole, on cells

T1 sequence (Q9NZQ7 19-238): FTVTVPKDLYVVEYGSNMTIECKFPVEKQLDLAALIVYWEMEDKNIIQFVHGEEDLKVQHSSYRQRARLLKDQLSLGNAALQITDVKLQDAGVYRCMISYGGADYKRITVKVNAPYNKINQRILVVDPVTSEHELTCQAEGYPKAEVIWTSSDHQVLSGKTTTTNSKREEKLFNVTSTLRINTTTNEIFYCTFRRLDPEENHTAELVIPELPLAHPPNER

B1: 抗PD-L1/CD47双特异性抗体C (bispecific antibody, human IgG4 S228P)
chain: QVQLQESGGGLVQPGGSLRLSCTASGYNLSPSCMGWFRQAPGKGLEGVAFTDADGSTRYADSVKARFTISRDNSKNTLYLQMNSLRAEDTAVYYCAADFFSYCSVVFRASARDKYRGQGTLVTVSSGGGGSGGGGSGGGGSGGGGSQVQLQESGGGLVQPGGSLRLSCTASGYNLSPSCMGWFRQAPGKGLEGVAFTDADGSTRYADSVKARFTISRDNSKNTLYLQMNSLRAEDTAVYYCAADFFSYCSVVFRASARDKYRGQGTLVTVSS[sequence of human IgG4 Fc with S228P (EU numbers) not given]GGGGSGGGGSGGGGSGGGGSQVQLQESGGGLVQPGGSLRLSCAASGYAYTSDCMGWFRQTPGKGLEGVALIYTPGASTNYADSVKGRFTISQDNSKSTVYLQMNSLRAEDTAMYYCAARRGACSLRLPFFYWGQGTLVTVSSGGGGSGGGGSGGGGSGGGGSQVQLQESGGGLVQPGGSLRLSCAASGYAYTSDCMGWFRQTPGKGLEGVALIYTPGASTNYADSVKGRFTISQDNSKSTVYLQMNSLRAEDTAMYYCAARRGACSLRLPFFYWGQGTLVTVSS
notes: dimer through Fc; also called 双抗C; 候选双抗C
[1]
  Kd: 26.6 nM
[2]
  Kd: 6.15 nM
[3]
  IC50: 6.23 nM

B2: 抗PD-L1/CD47双特异性抗体A (bispecific antibody, human IgG4 S228P)
chain: QVQLQESGGGLVQPGGSLRLSCTASGYNLSPSCMGWFRQAPGKGLEGVAFTDADGSTRYADSVKARFTISRDNSKNTLYLQMNSLRAEDTAVYYCAADFFSYCSVVFRASARDKYRGQGTLVTVSS[sequence of human IgG4 Fc with S228P (EU numbers) not given]GGGGSGGGGSGGGGSGGGGSQVQLQESGGGLVQPGGSLRLSCAASGYAYTSDCMGWFRQTPGKGLEGVALIYTPGASTNYADSVKGRFTISQDNSKSTVYLQMNSLRAEDTAMYYCAARRGACSLRLPFFYWGQGTLVTVSS
notes: Tetravalent form: PD-L1 single-domain antibody at the N-terminus, human Fc and flexible linker, CD47 single-domain antibody at the C-terminus; Expressed in CHO-S, purified on Protein A; also called 双抗A; 四价抗体A
[3]
  IC50: 10.8 nM

B3: 抗PD-L1/CD47双特异性抗体B (bispecific antibody, human IgG4 S228P)
chain: QVQLQESGGGLVQPGGSLRLSCAASGYAYTSDCMGWFRQTPGKGLEGVALIYTPGASTNYADSVKGRFTISQDNSKSTVYLQMNSLRAEDTAMYYCAARRGACSLRLPFFYWGQGTLVTVSS[sequence of human IgG4 Fc with S228P (EU numbers) not given]QVQLQESGGGLVQPGGSLRLSCTASGYNLSPSCMGWFRQAPGKGLEGVAFTDADGSTRYADSVKARFTISRDNSKNTLYLQMNSLRAEDTAVYYCAADFFSYCSVVFRASARDKYRGQGTLVTVSS
notes: Tetravalent form: CD47 single-domain antibody at the N-terminus, human Fc and flexible linker, PD-L1 single-domain antibody at the C-terminus; also called 双抗B; 四价抗体B
[3]
  IC50: 8.3 nM

B4: 抗PD-L1/CD47双特异性抗体D (bispecific antibody, human IgG4 S228P)
chain: QVQLQESGGGLVQPGGSLRLSCAASGYAYTSDCMGWFRQTPGKGLEGVALIYTPGASTNYADSVKGRFTISQDNSKSTVYLQMNSLRAEDTAMYYCAARRGACSLRLPFFYWGQGTLVTVSSGGGGSGGGGSGGGGSGGGGSQVQLQESGGGLVQPGGSLRLSCAASGYAYTSDCMGWFRQTPGKGLEGVALIYTPGASTNYADSVKGRFTISQDNSKSTVYLQMNSLRAEDTAMYYCAARRGACSLRLPFFYWGQGTLVTVSS[sequence of human IgG4 Fc with S228P (EU numbers) not given]QVQLQESGGGLVQPGGSLRLSCTASGYNLSPSCMGWFRQAPGKGLEGVAFTDADGSTRYADSVKARFTISRDNSKNTLYLQMNSLRAEDTAVYYCAADFFSYCSVVFRASARDKYRGQGTLVTVSSGGGGSGGGGSGGGGSGGGGSQVQLQESGGGLVQPGGSLRLSCTASGYNLSPSCMGWFRQAPGKGLEGVAFTDADGSTRYADSVKARFTISRDNSKNTLYLQMNSLRAEDTAVYYCAADFFSYCSVVFRASARDKYRGQGTLVTVSS
notes: dimer through Fc; also called 双抗D
[3]
  IC50: 4.91 nM

Source: patent publication CN112745392A (SHANGHAI NOVAMAB BIOPHARMACEUTICALS CO LTD, dated 2021)
